Measurements as given in the supplement of paper PMC4967469.
IC50 is the fitted dose that halves viability relative to control wells, and lower means more sensitive; a fit beyond the top or the lowest dose is shown as a bound at that dose. For AUC the same curve is integrated over the 256-fold range of doses and scaled to a fraction; values near 1 show little effect. For some assays here: Any top dose called inferred was calculated from the reported fits. For some assays here: Drugs with an entry number were screened twice under separate entries, and the two screens often disagree.

Legend:
Test in all cases: Viability of human cancer cell lines after 72 h of drug (GDSC screen)
Parthenolide = compound: C=C1C(=O)O[C@H]2[C@H]1CC/C(C)=C/CC[C@@]1(C)O[C@@H]21 [Parthenolide]; settings: top dose 5 µM
Experimental: (§1)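 Human cancer cell lines in 384-well plates, medium with 10% serum, drug for 72 h over a 256-fold dose range (nine 2-fold or five 4-fold steps up to the top dose). Adherent lines were fixed and stained with the nucleic acid dye Syto60, suspension lines read with resazurin; signal relative to control wells, capped at 0 and 100%. One two-parameter sigmoid per drug and line, fitted in a mixed model over all curves with the slope shared within a line.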

PAC-1 = compound: C=CCc1cccc(/C=N/NC(=O)CN2CCN(Cc3ccccc3)CC2)c1O [PAC-1]; settings: top dose 2.56 µM
Experimental: as §1

KIN001-135 = compound: COc1cc2ncn(-c3cc(OCc4ccccc4S(C)(=O)=O)c(C#N)s3)c2cc1OC [KIN001-135]; settings: top dose 5 µM; top dose inferred
Experimental: as §1

BMS-708163 = compound: NC(=O)[C@@H](CCC(F)(F)F)N(Cc1ccc(-c2ncon2)cc1F)S(=O)(=O)c1ccc(Cl)cc1 [BMS-708163]; settings: top dose 5 µM; screen: GDSC drug entry 1072; top dose inferred
Experimental: as §1

BE2-M17 (neuroblastoma, adherent)
AUC (Parthenolide): 0.977
IC50 (Parthenolide): > 5 µM
AUC (PAC-1): 0.987
IC50 (PAC-1): > 2.56 µM
AUC (KIN001-135): 0.987
IC50 (KIN001-135): > 5 µM
AUC (BMS-708163): 0.98
IC50 (BMS-708163): > 5 µM
